Reference: the supplement of paper PMC12645437, “Orthogonal IMiD-Degron Pairs Induce Selective Protein Degradation in Cells” (ACS Chemical Biology, 2025)
This is one part of the list.

B1: Q9UKT9 (peptide)
chain: FMCDVCGAKFTQKGNLLRHIKL
B2: Q9UKT9 (peptide)
chain: FICPICGHDFTQKGNLLRHIKL
B3: Q9UKT9 (peptide)
chain: FKCNQCGRNFTQKGNLLRHIKL
B4: Q9UKT9 (peptide)
chain: FRCDVCGAKFTQKGNLLRHIKL
B5: Q9UKT9 (peptide)
chain: FFCDICGAEFTQKGNLLRHIKL
B6: Q9UKT9 (peptide)
chain: FECNVCGAQFTQKGNLLRHIKL
B7: Q9UKT9 (peptide)
chain: FFCPICGRLFTQKGNLLRHIKL
B8: Q9UKT9 (peptide)
chain: FKCNQCGHVFTQKGNLLRHIKL
B9: Q9UKT9 (peptide)
chain: FTCPICGRMFTQKGNLLRHIKL
B10: Q9UKT9 (peptide)
chain: FMCEICGHTFTQKGNLLRHIKL
B11: Q9UKT9 (peptide)
chain: FTCEICGHLFTQKGNLLRHIKL
B12: Q9UKT9 (peptide)
chain: FFCPQCGAKFTQKGNLLRHIKL
B13: Q9UKT9 (peptide)
chain: FECPICGHEFTQKGNLLRHIKL
B14: Q9UKT9 (peptide)
chain: FCCNVCGAPFTQKGNLLRHIKL
B15: Q9UKT9 (peptide)
chain: FACEICGRMFTQKGNLLRHIKL
B16: Q9UKT9 (peptide)
chain: FACNQCGRAFTQKGNLLRHIKL
B17: Q9UKT9 (peptide)
chain: FHCEICGHFFTQKGNLLRHIKL
B18: Q9UKT9 (peptide)
chain: FNCEICGANFTQKGNLLRHIKL
B19: Q9UKT9 (peptide)
chain: FMCEICGRVFTQKGNLLRHIKL
B20: Q9UKT9 (peptide)
chain: FICDVCGAYFTQKGNLLRHIKL
B21: Q9UKT9 (peptide)
chain: LDCPICGFPCTQKGNLLRHIKL
B22: Q9UKT9 (peptide)
chain: FDCDVCGAEFTQKGNLLRHIKL
B23: Q9UKT9 (peptide)
chain: LGCNQCGFNCTQKGNLLRHIKL
B24: Q9UKT9 (peptide)
chain: FVCPICGAFFTQKGNLLRHIKL
B25: Q9UKT9 (peptide)
chain: LNCEICGFMCTQKGNLLRHIKL
B26: Q9UKT9 (peptide)
chain: FVCEICGRYFTQKGNLLRHIKL
B27: Q9UKT9 (peptide)
chain: FACEVCGAEFTQKGNLLRHIKL
B28: Q9UKT9 (peptide)
chain: FNCSVCGHAFTQKGNLLRHIKL
B29: Q9UKT9 (peptide)
chain: FKCNICGAEFTQKGNLLRHIKL
B30: Q9UKT9 (peptide)
chain: FQCEICGAQFTQKGNLLRHIKL
B31: Q9UKT9 (peptide)
chain: FVCPQCGAQFTQKGNLLRHIKL
B32: Q9UKT9 (peptide)
chain: FSCNQCGRIFTQKGNLLRHIKL
B33: Q9UKT9 (peptide)
chain: LQCPICGFACTQKGNLLRHIKL
B34: Q9UKT9 (peptide)
chain: FWCDICGAGFTQKGNLLRHIKL
B35: Q9UKT9 (peptide)
chain: LSCEICGFDCTQKGNLLRHIKL
B36: Q9UKT9 (peptide)
chain: FICDICGACFTQKGNLLRHIKL
B37: Q9UKT9 (peptide)
chain: LICEICGFLCTQKGNLLRHIKL
B38: Q9UKT9 (peptide)
chain: FHCDVCGATFTQKGNLLRHIKL
B39: Q9UKT9 (peptide)
chain: LCCNQCGFWCTQKGNLLRHIKL
B40: Q9UKT9 (peptide)
chain: FQCDQCGAQFTQKGNLLRHIKL
B41: Q9UKT9 (peptide)
chain: FMCPQCGALFTQKGNLLRHIKL
B42: Q9UKT9 (peptide)
chain: FYCPICGRAFTQKGNLLRHIKL
B43: Q9UKT9 (peptide)
chain: FGCNQCGAPFTQKGNLLRHIKL
B44: Q9UKT9 (peptide)
chain: FHCEVCGAYFTQKGNLLRHIKL
B45: Q9UKT9 (peptide)
chain: FGCEVCGAVFTQKGNLLRHIKL
B46: Q9UKT9 (peptide)
chain: FVCDVCGADFTQKGNLLRHIKL
B47: Q9UKT9 (peptide)
chain: FVCDQCGALFTQKGNLLRHIKL
B48: Q9UKT9 (peptide)
chain: FDCPICGHDFTQKGNLLRHIKL
B49: Q9UKT9 (peptide)
chain: FLCPVCGAKFTQKGNLLRHIKL
B50: Q9UKT9 (peptide)
chain: FCCPICGHPFTQKGNLLRHIKL

molecular target: no compound (DMSO); test: log2 fold change of degron read counts, EGFP-low vs EGFP+ sorted cells; higher = lower degron-EGFP level without compound (poor expression or instability); conditions: compound: DMSO control; 18 h
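Also: jurkat cells carrying a lentiviral library of mutant zinc finger degrons fused to EGFP plus mCherry, mCherry+ cells FACS sorted, degron abundance counted by next-generation sequencing.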

| Sequence | log2 fold change of degron read counts |
| --- | --- |
| B1 | -1.13 |
| B2 | -1.01 |
| B3 | -1.02 |
| B4 | -1.55 |
| B5 | -2.32 |
| B6 | -2.63 |
| B7 | 0.489 |
| B8 | 0.0079 |
| B9 | -0.478 |
| B10 | -2.34 |
| B11 | -1.85 |
| B12 | -0.419 |
| B13 | -0.937 |
| B14 | 0.0743 |
| B15 | -1.56 |
| B16 | -0.682 |
| B17 | 0.217 |
| B18 | -0.621 |
| B19 | -0.794 |
| B20 | -0.662 |
| B21 | -0.272 |
| B22 | -1.9 |
| B23 | 0.981 |
| B24 | 0.273 |
| B25 | 0.207 |

| Sequence | log2 fold change of degron read counts |
| --- | --- |
| B26 | -1.37 |
| B27 | -2.71 |
| B28 | -0.265 |
| B29 | -3.14 |
| B30 | -1.33 |
| B31 | -0.612 |
| B32 | 0.0933 |
| B33 | 0.854 |
| B34 | -0.3 |
| B35 | -0.57 |
| B36 | -1.33 |
| B37 | 0.621 |
| B38 | -1.84 |
| B39 | 1.7 |
| B40 | -1.78 |
| B41 | 0.264 |
| B42 | -3.34 |
| B43 | 0.439 |
| B44 | -1.45 |
| B45 | -1.84 |
| B46 | -2.61 |
| B47 | -2.49 |
| B48 | -0.641 |
| B49 | -0.0534 |
| B50 | 0.78 |
